Source: ChEMBL document CHEMBL4888484, “Replenishing the malaria drug discovery pipeline: Screening and hit evaluation of the MMV Hit Generation Library 1 (HGL1) against asexual blood stage Plasmodium falciparum ,using a nano luciferase reporter read-out” (2022)
About 540 (0.36%) of roughly 150,000 compounds showed an effect of 50% or more. This is one part of the list.

The compounds below were run on Plasmodium falciparum (assay: Primary screen in NF54 nanoGlo assay, in single point, at 2uM, 72h; a lower Z score goes with more inhibition). Details: timepoint 72 hour.
Type: functional, Erythrocyte

| Compound | % Inhibition | Z score |
| --- | --- | --- |
| O=C(Nc1cccnc1-n1cc(Cl)cn1)[C@H]1CC(=O)N(c2ccccc2)C1 | 6% | -0.99 |
| CCNC(=O)c1cc(NCCc2nccn2Cc2ccccc2)ccn1 | -9% | 0.95 |
| CCn1cc(S(=O)(=O)NCCc2cn(CC(C)C)c3ncccc23)cn1 | -2% | 0.3 |
| CCc1ccccc1NC(=O)CN(C)Cc1nc(-c2ccco2)no1 | -2% | 0.25 |
| CC1CN(C)CCC1N(C)C(=O)C1CC12CCCc1ccccc12 (stereo not drawn) | -7% | 0.7 |
| Cc1n[nH]c(CN2CCC3(CCC(=O)N(Cc4ccccn4)C3)CC2)n1 | 0% | -0.04 |
| Cc1cnc(C(C)N2CCCC(C)(F)C2)o1 (stereo not drawn) | 1% | -0.17 |
| c1ccc2c(c1)OC[C@H](CNCc1cccc3cn[nH]c13)O2 | -8% | 0.86 |
| COc1ccc(NC(=O)CN2CN(c3ccccc3)C3(CCN(C(=O)COc4ccccc4)CC3)C2=O)cc1 | -6% | 1.03 |
| COCCc1noc(-c2ccc3oc(C)cc3c2)n1 | -15% | 1.48 |
| Cc1cnn(CCNc2nc3ccccc3o2)c1 | -6% | 0.84 |
| CCOc1ncccc1-c1nccnc1N1CCCC1 | 1% | -0.12 |
| CCc1noc(C(=O)N2CCN(C)[C@H](C(C)(C)C)C2)n1 | -11% | 1.61 |
| Cc1ccc(CC(=O)N2CCC3(CC2)CN(C)C[C@@H]3c2noc(C3CC3)n2)cc1 | -20% | 2.35 |
| Cc1occc1C(=O)NC[C@](C)(NC(=O)c1ccoc1C)C(C)C | -13% | 1.71 |
| CCc1nnc(CN(CC)C(=O)c2cnc(-c3cccnc3)nc2O)o1 | -6% | 0.5 |
| Cc1ccc2c(C(=O)N3CCN(C4CCCCC4)CC3)cc(NC(=O)C(C)C)cc2n1 | -11% | 1.55 |
| CC(C)(C)c1nn(-c2ccccc2)cc1C(=O)N1CCN(C[C@H]2COCCO2)CC1 | -10% | 1.36 |
| Cc1noc(C)c1Cn1sc2ccccc2c1=O | -6% | 0.84 |
| CC[C@@H](C#N)OC(=O)Cc1ccc(F)cc1 | -14% | 2.17 |
| Cc1noc(-c2cccn2Cc2c(F)cccc2Cl)n1 | 4% | -0.69 |
| Cc1cc(C)n(CCN(C)c2cc(C3CC(O)C3)ncn2)n1 (stereo not drawn) | -1% | 0.11 |
| COc1ncccc1C(=O)N1CCc2nc(NC(=O)c3ccco3)sc2C1 | -12% | 1.75 |
| COCCNC(=O)c1ccc(OC)cc1OC1CCN(Cc2ccc3ccccc3c2)CC1 | 0% | 0.02 |
| Cc1nnc(CN[C@H](c2ccccc2)C2(CO)CCC2)o1 | 21% | -2.61 |
| Cc1cc(C)n([C@H]2[C@@H]3OC[C@@H](O3)[C@@H](NC(=O)Nc3cccc(F)c3)[C@@H]2O)n1 | 2% | -0.33 |
| N[C@@H](CO)c1cccc(Br)c1 | 30% | -0.35 |

| Compound | % Inhibition | Z score |
| --- | --- | --- |
| Cc1nccn1CCCCNC(=O)N1CCC2CCCCC21 (stereo not drawn) | -2% | 0.29 |
| CCOc1cc(CN2CCC(O)(c3ccc4oc(C(=O)NCC(C)C)cc4c3)CC2)ccc1OC | 1% | -0.08 |
| COc1ccc(NC(=O)CCn2c(=O)[nH]c3cc(S(=O)(=O)N4CCCCC4)ccc32)cc1 | -16% | 2.09 |
| C[C@@H](CC1CCOCC1)NCc1ccccc1 | -11% | 1.16 |
| CC(C)Oc1ncccc1NCc1ccc2cn[nH]c2c1 | -5% | 0.42 |
| O=C(c1n[nH]c2ccccc12)N1CCC(c2nc3ccccc3s2)CC1 | -9% | 1.17 |
| CC(C)(C)c1ncc(CN2CCC3(CCC3)S(=O)(=O)CC2)cn1 | -8% | 1.36 |
| COCCN1C[C@@H](CNc2nccnc2N(C)C)CC1=O | -3% | 0.34 |
| Brc1cc2c(cc1Cn1nnc(-c3ccncc3)n1)OCO2 | 13% | -1.6 |
| CCc1noc(CN2C(C)CC(C(=O)NC(C)CC)C3CCCCC32)n1 (stereo not drawn) | -6% | 1.05 |
| Cc1noc(C)c1CN1CC[C@H](NC(=O)c2ccc[nH]2)[C@@H](O)C1 | -16% | 2.71 |
| c1ccc(CN2C[C@H]3CC[C@@H](C2)N(Cc2ccnc4ccccc24)C3)nc1 | -13% | 2.43 |
| Cn1nc2c(c1C(=O)NCC[C@H]1CCC(C)(C)CO1)CCC2 | -10% | 1.21 |
| COc1ncc(CN2CCC(OCc3ccccn3)CC2)cn1 | -12% | 1.49 |
| COc1cc(CN2CCCC2(C)C)ccc1OC[C@@H](O)CN1CCCCCC1 | -5% | 0.99 |
| Cc1c[nH]c(CN(C)C(=O)c2ccc3[nH]ccc3c2)n1 | -7% | 1.15 |
| CN(Cc1nc(-c2ccccn2)no1)Cc1cnc(N(C)C)s1 | -6% | 0.84 |
| Cc1cc(N2CC[C@H](C(N)=O)C2)c2cc(OC(F)F)ccc2n1 | -6% | 1.13 |
| CCOC(=O)c1cc(S(=O)(=O)N(C)CC(=O)Nc2cccc3c2CCCC3)cn1C | -13% | 2.52 |
| O=S(=O)(NC[C@@H](c1ccc(Cl)cc1)N1CCCCC1)C1CC1 | -13% | 2.27 |
| CC1CC(c2ccccc2)n2ncnc2N1C(=O)c1ccc(Cl)cc1 (stereo not drawn) | 31% | -3.46 |
| O=C(c1ccc2ncsc2c1)N1CCn2nc3c(c2C1)CCC3 | 12% | -1.47 |
| Cc1ccc2cccc(S(=O)(=O)NCCCn3cccn3)c2n1 | -3% | 0.5 |
| CC(C)Oc1ccc2nnc(CCC(=O)Nc3ccccn3)n2n1 | -2% | 0.22 |
| COc1cc(C(=O)NC[C@@H](c2ccc(N(C)C)cc2)N2CCCC2)cc(OC)c1OC | 3% | -0.31 |
| CCc1nnc(CN2C(=O)N[C@@](C)(c3ccc(Cl)s3)C2=O)o1 | 2% | -0.34 |
| CCN(C(=O)c1ccc(-c2ccc(C(=O)NC)o2)cc1)[C@H]1COC[C@@H]1O | -19% | 1.79 |
